The list shows a part of the results. Sequences were assembled here from the parent chain. Inactive controls read about 0.05.
B1: TEV protease; numbered along this chain (parent)
chain: MGESLFKGPRDYNPISSSICHLTNESDGHTTSLYGIGFGPFIITNKHLFRRNNGTLVVQSLHGVFKVKDTTTLQQHLVDGRDMIIIRMPKDFPPFPQKLKFREPQREERICLVTTNFQTKSMSSMVSDTSCTFPSGDGIFWKHWIQTKDGQCGSPLVSTRDGFIVGIHSASNFTNTNNYFTSVPKNFMELLTNQEAQQWVSGWRLNADSVLWGGHKVFMVKPEEPFQPVKEATQL

Variants of: B1
Experiment: raw area under fraction-flipped curve 0-4 h after induction (AUC4h, not background-subtracted), DNA-recorder readout of cleavage of the substrate (dimensionless); higher = more cleavage of the substrate by the protease variant
Details: temperature: 34 °C; time window: 0-4 h after rhamnose induction
Procedure: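 In vivo DNA recorder in E. coli TOP10(DE3) ΔrhaA at 34 °C. Each TEVp single-site mutant (parent TEVp 0) is paired with a single-site variant of the 7-mer TEVs (canonical ENLYFQ|S). The substrate sits between flexible linkers in a Bxb1-sfGFP-TEVs-SsrA fusion, so cleavage stabilises Bxb1 and speeds flipping of a recombination array, read by NGS. The value is the raw area under the fraction-flipped curve over 0-4 h after rhamnose induction (AUC4h), with ≥20 reads per time point. It is not background-subtracted; inactive controls average about 0.047.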
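Also: Bxb1 expression induced with 0.2% (w/v) L-rhamnose at OD600 near 0.5, cultures sampled hourly, flipped fraction per protease–substrate barcode pair counted by paired-end Illumina sequencing.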

| Variant | area with substrate ENLAFQS | area with substrate ENLDFQS | area with substrate ENLEFQS | area with substrate ENLFFQS | area with substrate ENLGFQS | area with substrate ENLHFQS | area with substrate ENLIFQS | area with substrate ENLKFQS | area with substrate ENLLFQS | area with substrate ENLMFQS | area with substrate ENLNFQS | area with substrate ENLPFQS | area with substrate ENLQFQS | area with substrate ENLSFQS | area with substrate ENLCFQS | area with substrate ENLRFQS | area with substrate ENLTFQS | area with substrate ENLVFQS | area with substrate ENLWFQS |
| --- | --- | --- | --- | --- | --- | --- | --- | --- | --- | --- | --- | --- | --- | --- | --- | --- | --- | --- | --- |
| T147N | 0.0475 | 0.0618 | 0.0625 | 0.063 | 0.0614 | 0.0349 | 0.0629 | 0.0513 | 0.0548 | 0.0623 | 0.066 | 0.071 | 0.0583 | 0.0649 | – | – | – | – | – |
| T147E | 0.0609 | 0.0675 | 0.067 | 0.0641 | 0.0753 | 0.0748 | 0.0681 | 0.0456 | 0.0538 | 0.0798 | 0.0665 | 0.0625 | 0.059 | 0.0506 | 0.0627 | 0.0595 | – | – | – |
| C152S | 0.0596 | 0.0646 | – | 0.0611 | 0.0667 | 0.0568 | 0.0682 | 0.066 | 0.0633 | 0.0652 | 0.0586 | 0.055 | – | 0.0509 | – | 0.0595 | 0.0544 | 0.066 | 0.0583 |
| F180V | 0.0252 | 0.0673 | 0.084 | 0.0705 | – | 0.0613 | 0.0659 | 0.0451 | 0.0683 | 0.0517 | 0.0571 | 0.0329 | 0.0717 | – | – | 0.0671 | – | 0.0663 | – |
| F180L | 0.0902 | – | – | 0.115 | 0.0753 | 0.0694 | 0.0777 | 0.0906 | – | – | 0.0617 | – | 0.0729 | – | 0.107 | – | – | – | – |
| F187E | 0.0519 | 0.0512 | 0.0503 | 0.0684 | – | 0.0502 | 0.0578 | 0.0475 | 0.0517 | 0.0428 | – | 0.0527 | 0.054 | 0.0683 | 0.0706 | 0.0511 | – | – | 0.0507 |
| F187Q | 0.0601 | 0.0616 | 0.049 | 0.0549 | – | 0.0562 | 0.0679 | 0.0559 | 0.0532 | 0.062 | 0.0598 | 0.0508 | 0.0581 | 0.0553 | 0.0614 | – | – | 0.0777 | – |
| D137R | 0.0718 | 0.0669 | 0.0711 | 0.0756 | – | 0.0536 | – | 0.0505 | 0.0454 | – | 0.0632 | 0.0611 | – | 0.0631 | 0.051 | 0.0748 | – | – | 0.0661 |
| I164C | 0.0669 | 0.0636 | 0.0576 | 0.092 | 0.0657 | 0.0674 | 0.0632 | 0.0705 | – | – | 0.0537 | – | 0.0544 | 0.0642 | 0.0818 | 0.0685 | – | 0.0755 | 0.0571 |
| V157A | 0.0593 | – | 0.0535 | 0.0718 | – | 0.0655 | 0.0728 | 0.0835 | 0.0629 | 0.13 | 0.0627 | 0.0551 | 0.0626 | 0.0633 | – | – | – | – | 0.0673 |
| S201W | 0.0605 | 0.0698 | 0.0772 | 0.103 | – | 0.0719 | – | 0.0656 | 0.0717 | 0.0793 | 0.0634 | 0.0591 | 0.0702 | 0.0751 | – | 0.0676 | – | 0.0495 | 0.0601 |
| T176Y | 0.0689 | 0.0671 | 0.0452 | 0.0612 | – | 0.0561 | 0.0043 | 0.0575 | 0.0473 | – | 0.0711 | 0.0528 | 0.0299 | – | – | 0.0357 | – | – | – |
| K148G | 0.0744 | 0.0546 | – | 0.0507 | – | 0.0549 | 0.0711 | 0.0712 | 0.0596 | 0.0472 | 0.0574 | 0.0665 | – | 0.0674 | 0.0677 | 0.0695 | – | 0.0733 | 0.0501 |
| H143C | 0.0608 | 0.063 | – | 0.0642 | – | 0.0598 | – | 0.0719 | 0.0584 | 0.0565 | 0.0592 | 0.0447 | – | 0.0642 | – | 0.0517 | – | 0.0915 | 0.0391 |
| H143P | 0.0649 | 0.0586 | 0.0639 | 0.0596 | 0.0656 | – | 0.0507 | 0.05 | 0.0321 | – | 0.0667 | 0.0623 | 0.0497 | 0.053 | – | 0.0669 | – | – | 0.0505 |
| H143A | 0.0515 | 0.0612 | 0.0679 | 0.0719 | – | 0.0737 | 0.0806 | 0.0698 | 0.0411 | – | 0.0646 | 0.0737 | 0.0567 | 0.0639 | 0.0483 | 0.065 | – | 0.0737 | 0.0661 |
| K142S | 0.073 | 0.0616 | 0.101 | 0.113 | – | 0.0643 | – | 0.104 | 0.0866 | – | 0.0685 | – | 0.0519 | 0.0741 | – | 0.0603 | 0.0715 | 0.0564 | – |
| K142F | 0.0719 | 0.0649 | 0.0597 | 0.0739 | – | 0.0625 | 0.0953 | 0.0695 | 0.0818 | 0.0842 | 0.0713 | 0.055 | 0.0605 | 0.0571 | 0.0503 | 0.0637 | – | – | 0.0687 |
| K142E | 0.0586 | 0.0635 | 0.0549 | 0.092 | – | 0.0648 | – | 0.0728 | 0.0337 | 0.0848 | 0.0782 | 0.0585 | 0.0634 | 0.0814 | 0.0683 | 0.0704 | – | 0.0715 | 0.062 |
| F173D | 0.0596 | 0.0616 | 0.0657 | 0.0749 | 0.0662 | 0.0657 | 0.0697 | 0.0599 | 0.061 | – | 0.0609 | 0.0664 | 0.0794 | 0.069 | 0.0611 | 0.0598 | – | – | 0.0634 |
| F173A | 0.0629 | 0.0823 | 0.0895 | 0.0885 | 0.0755 | 0.0696 | 0.0806 | 0.0754 | 0.0489 | 0.0727 | 0.0527 | 0.0587 | 0.0609 | 0.0631 | 0.056 | 0.0704 | – | 0.06 | 0.0669 |
| P155A | 0.0618 | 0.0652 | 0.0602 | 0.0874 | 0.0712 | – | 0.0791 | 0.0796 | 0.0938 | 0.0505 | 0.0591 | 0.0631 | 0.082 | 0.0531 | 0.0792 | 0.0636 | 0.0757 | – | 0.068 |
| P155W | 0.0703 | 0.06 | 0.0617 | 0.0582 | 0.0643 | 0.0547 | 0.0512 | 0.0505 | 0.0282 | 0.0511 | 0.0628 | 0.0549 | 0.0473 | 0.0578 | 0.0608 | – | – | 0.0616 | 0.0477 |
| Q146R | 0.0569 | 0.075 | 0.067 | 0.0867 | – | 0.0741 | 0.0838 | 0.0728 | 0.0829 | – | 0.074 | 0.0687 | 0.0681 | 0.0664 | 0.0741 | 0.0627 | – | 0.0968 | 0.0696 |
